Results from the supplement of paper PMC10338343.
± gives the standard deviation. Only a part is listed here, and it is no random draw.
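Also: 1 nM active piRISC with 0.1 nM target library at 33 °C single turnover.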

Each sequence was assayed on MIWI (PIWIL1) piRISC loaded with piRNA #1 (30 nt) (assay: pre-steady-state target cleavage rate (min^-1); MIWI and MILI are mouse PIWI proteins and EfPiwi is from a freshwater sponge; tags in brackets are library labels; higher = faster piRNA-guided slicing of the target). Details: guide: piRNA #1 5'p-UGAGGUAGUAGGUUGUAUAGUAUCCAGAGG; auxiliary factor: 500 nM mouse GTSF1.
Procedure, shortened: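 At 33 °C in HEPES–potassium acetate buffer, a transcribed, DNA-blocked target RNA library […] was exposed for 0–8 or 0–960 min to 1 nM active affinity-purified piRISC carrying a single synthetic guide, with or without 500 nM GTSF1 partner protein. Uncleaved targets were sequenced and normalised to depth and to weakly complementary targets. With three trials pooled and k3 capped at 0.0001 min^-1, a burst-and-steady-state fit produced the pre-steady-state cleavage rate.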
GGAGACCUAUCUUUACAACCUACUAGCUCA was tested, and the “pre-steady-state target cleavage rate” value was 0.0562 ± 0.015.
With GGAGACGAUACUAUACUUCCUACUACCUCA the “pre-steady-state target cleavage rate” value was 0.277 ± 0.028.
For GGACUCGAUACUAUACAACCUAGUACCUCA, the “pre-steady-state target cleavage rate” value was 0.493 ± 0.053.
In the case of GGAGACCAUACUAUGCAACCUACUACCUCA, the “pre-steady-state target cleavage rate” value is reported as 1.67 ± 0.1.
In the case of GGAGAGGAUACUAUACAACCUACUACGUGA, the “pre-steady-state target cleavage rate” value is reported as 0.0459 ± 0.0097.
For GGUCUGGAUACUAUACUACCUACUACCACA, the “pre-steady-state target cleavage rate” value was 1.34 ± 0.13.
GGAGACCUAUGAUAACAACCUACUAGCUGA was tested, and the “pre-steady-state target cleavage rate” value was < 0.0001.
For GGAGACCAAAGUAUACAACCUACUACCUCA, the “pre-steady-state target cleavage rate” value was 0.163 ± 0.022.
For CCUCUGGAUACUAUACAAGCUACUUCCUCA, the “pre-steady-state target cleavage rate” value was 0.599 ± 0.043.
GGAGACCUUACUAUUCAUCCUACUACCUCA was tested, and the “pre-steady-state target cleavage rate” value was 0.53 ± 0.043.
With GGAGACCUAACAAUACAACCUACUACGUCA the “pre-steady-state target cleavage rate” value was 0.0842 ± 0.032.
With GGAGUGGAUACUAUUCAACCUUCUACCUCA the “pre-steady-state target cleavage rate” value was 0.567 ± 0.027.
In the case of GGAGACGAUACUAUCAACCUACUACCUCA, the “pre-steady-state target cleavage rate” value is reported as 1.34 ± 0.1.
CCUCUGGCAUACUAUACAACCUACUACCUCA was tested, and the “pre-steady-state target cleavage rate” value was 2.31 ± 0.12.
In the case of CCUCUGGAUACUAUACAACCUACUAGCUGA, the “pre-steady-state target cleavage rate” value is reported as 0.308 ± 0.046.
In the case of GGAGACGAUACUAUACAUCCUAGUACCUCA, the “pre-steady-state target cleavage rate” value is reported as 0.302 ± 0.033.
In the case of GGAGAGGAUACUAAUGAACCUACUACCUCA, the “pre-steady-state target cleavage rate” value is reported as 0.359 ± 0.047.
With GGAGUGGAUUCUUUACAACCUACUACCUCA the “pre-steady-state target cleavage rate” value was 1.13 ± 0.082.
CCAGAGGAUACUAUACAACCUACUACCUCA was tested, and the “pre-steady-state target cleavage rate” value was 0.35 ± 0.05.
For GGAGACCUUACAAUACAUCCUACUACCUCA, the “pre-steady-state target cleavage rate” value was 0.189 ± 0.03.
GGAGUGGAUACUAUACAACCUACAUACCUCA was tested, and the “pre-steady-state target cleavage rate” value was 0.836 ± 0.065.
For GGACUGGAUACUAUACAACCUACAACCUCA, the “pre-steady-state target cleavage rate” value was 0.267 ± 0.034.
For CCUCUGGAUACUAUACAACCAACUAGCUCA, the “pre-steady-state target cleavage rate” value was 0.13 ± 0.021.
In the case of GGACUGGAUACUUUACAACCUACAACCUCA, the “pre-steady-state target cleavage rate” value is reported as 0.0548 ± 0.011.
In the case of GCUCUGGAUACUAUUCAACCUUCUACCUCA, the “pre-steady-state target cleavage rate” value is reported as 0.589 ± 0.031.
With GCUCUGCAUACUAUACAACCUAGUACCUCA the “pre-steady-state target cleavage rate” value was 0.689 ± 0.11.
With GCUCUGGAUACAAUACUACCUACUACCUCA the “pre-steady-state target cleavage rate” value was 1.08 ± 0.075.
GGAGACCAUACUAUAGUACCUACUACCUCA was tested, and the “pre-steady-state target cleavage rate” value was 0.423 ± 0.064.
With GGAGUGCAUACUAUACAACCUACUACCUCA the “pre-steady-state target cleavage rate” value was 1.66 ± 0.1.
For GGAGUGGAUACUAUACAACAUACUACCUCA, the “pre-steady-state target cleavage rate” value was 1.15 ± 0.064.
For GGAGUGGAAACUAUUCAACCUACUACCUCA, the “pre-steady-state target cleavage rate” value was 1.3 ± 0.085.
GGACUGGAUACUAUAGAACCAACUACCUCA was tested, and the “pre-steady-state target cleavage rate” value was 0.0434 ± 0.006.
GGAGACCUUACUAUACAAGCUACUAGCUCA was tested, and the “pre-steady-state target cleavage rate” value was 0.318 ± 0.03.
In the case of GGACUGGAUACUAUACAACCUACGACCUCA, the “pre-steady-state target cleavage rate” value is reported as 0.37 ± 0.047.
With GGACUGGAUACUAUACAACCUCCUACCUCA the “pre-steady-state target cleavage rate” value was 0.801 ± 0.052.
For GGACAGGAUAGUAUACAACCUACUACCUCA, the “pre-steady-state target cleavage rate” value was 0.322 ± 0.035.
GGAGACCUUACUAUUCAACCUACUACCACA was tested, and the “pre-steady-state target cleavage rate” value was 0.824 ± 0.085.
For GCUGUGGAUACUAUACAAGCUACUACCUCA, the “pre-steady-state target cleavage rate” value was 1.16 ± 0.062.
CCUCUGGAUACUAUACAUCCUUCUACCUCA was tested, and the “pre-steady-state target cleavage rate” value was 0.332 ± 0.026.
GGAGACCAUACUAUACAACCUACUACUCA was tested, and the “pre-steady-state target cleavage rate” value was 1.21 ± 0.08.
